Assay results published in the RNAGym collection of RNA variant scans (doi:10.7554/elife.90254).
The source gives no read counts; variants with many changes may rest on few reads.

B1: LINE1-mini (parent)
chain: GGCAGAGCUCAACACAGCGUGGCAAAGUGGCUGUGGCUAGACUGCC

Variants of: B1
Assay: self-cleavage, relative activity (ratio to wild type); higher = more cleavage; in vitro, sequencing; the parent is a self-cleaving ribozyme
In the case of C8A G17C U38G A39U A41U, the self-cleavage is reported as 0.01. G2A C42G C46A showed a self-cleavage of 0.06. Work on C23U G29U G44U yielded a self-cleavage of 0.2. Work on C3G G7A A11U G29U G40U yielded a self-cleavage of 0.04. In the case of G1A G7U G17C G29C G35U, the self-cleavage is reported as 0.03. Variant U9G G17U G22U has a self-cleavage of 0.04. With C3A G17C U43C the self-cleavage was 0.02. A16U G27A U43C gave a self-cleavage of 0.06. Work on G5A A12G C13A yielded a self-cleavage of 0.05. A11G C37A G40U showed a self-cleavage of 0.07. In the case of A6G C8G U9G C18G G29C C31G U34A, the self-cleavage is reported as 0.01. For C3A G5A G7U A14G G30U G40C, the self-cleavage was 0.24. Variant A6C G22U A24G A25C C46A has a self-cleavage of 0.12. Work on G5C C13U G36C C37U yielded a self-cleavage of 0.05. Variant C15U G33U A39C has a self-cleavage of 0.02. C8G U9G A12C showed a self-cleavage of 0.03. G2A A4C C18U A24U showed a self-cleavage of 0.05. Work on A6C U34A C37A U38A A41U C46U yielded a self-cleavage of 0.02. In the case of C37A A39G G40A, the self-cleavage is reported as 0.02. Variant A4C C23U G29A G36U has a self-cleavage of 0.09. For G22U A24U A25G, the self-cleavage was 1.09. G5C A41U C45U C46G showed a self-cleavage of 0.03. For U9A A12G A26G G29A, the self-cleavage was 0.03. C8A C42G G44U gave a self-cleavage of 0.19. Variant G2C C10U U28C G33C has a self-cleavage of 0.05. Variant C3U C13A A24G C37A has a self-cleavage of 0.14. Variant C10G C15G C31A G36C has a self-cleavage of 0.03. C3A G5C C8A G27U U34C gave a self-cleavage of 0.24. With G1U G22U G33C the self-cleavage was 0.01. In the case of G2A A4U A6G G22U C23G C42U G44U, the self-cleavage is reported as 0.03. A16U A25C A26C G27A gave a self-cleavage of 0.05. In the case of G7C U28C G35C, the self-cleavage is reported as 0.09. Variant C3U G21C C23G C42A C46U has a self-cleavage of 0.08. Work on C15G G29C C42A yielded a self-cleavage of 0. With A6C A12U U34A C45G the self-cleavage was 0. A11U A24U C46G gave a self-cleavage of 0.02. For C3G G7U C13A, the self-cleavage was 2.26. Work on A14U U20G C42U yielded a self-cleavage of 0.07. With G1U G2U G7A A14U C31U the self-cleavage was 0.03. For G1A C10A A25C, the self-cleavage was 0.1. In the case of C13U A25U C31G A39C, the self-cleavage is reported as 0.03. In the case of A25G G29U G33U U43C, the self-cleavage is reported as 0.18. G5A A14C A24U G35A G44A gave a self-cleavage of 0.04. G2C G7A G36C gave a self-cleavage of 0.02. With G7U A12C C13G G22A A26G the self-cleavage was 0.1. With G5U C18U G44A the self-cleavage was 0.05. With G2C C10A A24U the self-cleavage was 0.02. A14G C18G G21U G22U A26C gave a self-cleavage of 0.2. A4C A24U A41C showed a self-cleavage of 0.12. For A12C G30C G33A, the self-cleavage was 0.01. In the case of C15A G33C C37U, the self-cleavage is reported as 0.04. C8U A16U C23A G40U gave a self-cleavage of 0.03. With C18U G36A C42G the self-cleavage was 0.04. G1C C8A C10A A11C C18G G30C G35A showed a self-cleavage of 0.01. Variant G1A G2C G5A C10A A25G G29U G30A has a self-cleavage of 0.04. A12C U28G G30A A39G showed a self-cleavage of 0.01. A6G G7C G19A G33A showed a self-cleavage of 0.12. C10A A16G C18U C45A gave a self-cleavage of 0.03. With A4C C13A C23A the self-cleavage was 0.1. Variant G2C U9A C10U G35U C37G has a self-cleavage of 0.07. With A4U A25G U28C the self-cleavage was 0. In the case of U9G C37U U38A C46A, the self-cleavage is reported as 0.03. For C3A G40U C42G, the self-cleavage was 0.26. Work on C3A U9G C10U C13G G29U A41C yielded a self-cleavage of 0.03. With C13U U20A C23U A24U C37U C42U the self-cleavage was 0.15. For A11U C13G C18G, the self-cleavage was 0.02. G17C U20A G36U gave a self-cleavage of 0. With G2U G21A A26U the self-cleavage was 0.21. With C3A A6C C37A the self-cleavage was 0.09. With G2A G21A U28G G35A the self-cleavage was 0.96. Work on C15A A26U C31A yielded a self-cleavage of 0.01. Variant C8G C15A A25U has a self-cleavage of 0.37. A12C G30A C31A gave a self-cleavage of 0.07. With C10U A14G G27U C31G the self-cleavage was 0.04. Variant G1C C10A U28A has a self-cleavage of 0.02. Work on G5U A25C G35U yielded a self-cleavage of 0.04. A6U G17A U28A A39U showed a self-cleavage of 0.02. A16G G17U A24G C31U C45U gave a self-cleavage of 0.03. G2U G5U A25C U28C showed a self-cleavage of 0. G17C G27U G40A gave a self-cleavage of 0.11. G1A A16C A24C G27U C31U showed a self-cleavage of 0.02. Work on C8U C13U C18U C23U G29U C45U yielded a self-cleavage of 0.25. For G7A C10U G30A U34C C37U, the self-cleavage was 0.03.
